# According to paper PMC4336329 (PLoS ONE, 2015):
# Screen size: about 310,000 compounds; about 2,200 (0.71%) showed an effect of 50% or more. The effect is printed as a negative number. The list shows a part of the results.
# Target: human ether-à-go-go-related gene (hERG) potassium channel (human, UniProt Q12809)
# Assay: primary screen, population patch clamp on CHO cells stably expressing hERG
# Sequence of human ether-à-go-go-related gene (hERG) potassium channel (Q12809 whole entry, looked up): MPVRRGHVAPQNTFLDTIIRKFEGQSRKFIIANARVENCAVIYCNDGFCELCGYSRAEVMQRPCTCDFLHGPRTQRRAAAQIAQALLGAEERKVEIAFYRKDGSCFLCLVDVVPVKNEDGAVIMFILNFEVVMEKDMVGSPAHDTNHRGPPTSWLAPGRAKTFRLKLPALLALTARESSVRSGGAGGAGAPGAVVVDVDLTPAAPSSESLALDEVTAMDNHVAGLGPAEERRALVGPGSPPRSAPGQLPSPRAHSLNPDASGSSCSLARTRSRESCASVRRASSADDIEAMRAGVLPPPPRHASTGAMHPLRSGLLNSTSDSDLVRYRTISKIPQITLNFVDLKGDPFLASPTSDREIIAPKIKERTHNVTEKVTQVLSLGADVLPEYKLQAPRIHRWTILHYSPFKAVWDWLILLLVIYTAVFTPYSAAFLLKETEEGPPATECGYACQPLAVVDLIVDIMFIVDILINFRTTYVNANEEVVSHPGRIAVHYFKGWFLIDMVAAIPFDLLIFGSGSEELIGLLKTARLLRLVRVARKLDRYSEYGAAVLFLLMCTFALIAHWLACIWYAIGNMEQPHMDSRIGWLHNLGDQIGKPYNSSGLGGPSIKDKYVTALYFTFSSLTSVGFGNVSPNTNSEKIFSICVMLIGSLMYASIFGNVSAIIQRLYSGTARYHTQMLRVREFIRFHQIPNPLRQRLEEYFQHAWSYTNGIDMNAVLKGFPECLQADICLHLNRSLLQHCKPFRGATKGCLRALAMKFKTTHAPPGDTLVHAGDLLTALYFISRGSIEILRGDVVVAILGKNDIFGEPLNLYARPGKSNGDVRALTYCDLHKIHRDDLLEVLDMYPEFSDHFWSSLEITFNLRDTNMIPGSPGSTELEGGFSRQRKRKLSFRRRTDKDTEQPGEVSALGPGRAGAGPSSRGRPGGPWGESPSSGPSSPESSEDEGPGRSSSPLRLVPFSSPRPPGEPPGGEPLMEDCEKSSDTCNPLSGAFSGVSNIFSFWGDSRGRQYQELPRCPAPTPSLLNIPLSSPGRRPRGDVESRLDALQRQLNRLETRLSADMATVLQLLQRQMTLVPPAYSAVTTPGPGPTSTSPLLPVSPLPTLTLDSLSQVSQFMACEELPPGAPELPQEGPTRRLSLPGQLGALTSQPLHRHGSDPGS
row,Compound,"hERG current change (%, negative = inhibition) at 1uM"
1,CCN(CC)CCCNC(=S)N1CCN(c2nc3ccccc3n2CC)CC1,10.5%
2,COCc1cc(=O)n2[nH]c(-c3cccs3)cc2n1,10.8%
3,Cc1nnsc1C(=O)N/N=C/c1ccccc1,5.76%
4,O=C(O)C(=O)O.OC(CNCCc1ccc(Cl)cc1Cl)COc1ccccc1 (stereo not shown),6.22%
5,Cn1nc(C(=O)NNc2c(F)c(F)cc(F)c2F)c2ccccc2c1=O,10.8%
6,CCOc1c2ccc(C(=O)NCCCCc3ccccc3)cc2nn1C,-0.119%
7,O=C(NCCCN1CCOCC1)C1(c2ccccc2)CCOCC1,19.2%
8,CC(=O)c1cccc(-n2nnnc2SCC(=O)NNC(=O)C2CCCCC2)c1,6.9%
9,COc1cccc(C2(O)CCN(C(=O)c3cccs3)CC2)c1,5.78%
10,Cc1nn(-c2cccc(C(F)(F)F)c2)c(=O)c2noc(C)c12,0.696%
11,CC(=O)Nc1ccc(NC(=O)CSc2nnc(C3CC3)n2C)cc1,10.9%
12,O=C(Nc1ccccc1Cl)N1CCSc2ccccc21,12.2%
13,Cc1cc2ccccc2n1CCNC(=O)COc1ccccc1,-3.2%
14,CN(CC(=O)Nc1ccc(F)c(F)c1F)C1CCCCC1,-2.93%
15,CCCn1c(NCc2ccccc2NS(=O)(=O)c2ccc(C)cc2)nc2ccccc21,10.5%
16,CCOC(=O)C1CCN(C(=O)Cn2nc(C)c3c(C)n(-c4ccccc4)nc3c2=O)CC1,10.2%
17,O=C(CCCCCn1nnc2ccccc2c1=O)Nc1ccccc1Cl,10.7%
18,Cc1noc(NS(=O)(=O)c2ccc(N/C=C\C(=O)c3cccc4ccccc34)cc2)c1C,9.45%
19,O=C(NCc1ccccc1)C(c1cccnc1)N(C(=O)c1ccccn1)c1ccccc1F (stereo not shown),10.1%
20,COc1ccc(NS(=O)(=O)c2ccc(C)c(C(=O)N(C)Cc3ccc(C)cc3)c2)cc1,11.7%
21,O=C1CC(c2ccccc2)CC(O)=C1C=NCCN1CCN(C(=O)Cc2ccccc2)CC1 (stereo not shown),-19.7%
22,CCC(=O)c1ccc(N2CCN(C(=O)c3cccs3)CC2)c(F)c1,0.503%

row,Compound,"hERG current change (%, negative = inhibition) at 1uM"
1,COc1ccc(NC(=O)COc2cccc3c2OC(C)(C)C3)cc1OC,11.7%
2,COc1cc(NC(=O)C2CCN(S(=O)(=O)c3cccnc3)CC2)cc(OC)c1OC,-4.49%
3,Cc1[nH]c2ccccc2c1C(=O)CSCC(=O)O,5.4%
4,COCCOC(=O)c1c(NC(=O)CSc2cccc[n+]2[O-])sc(C(N)=O)c1C,31.6%
5,O=C(NCc1ccco1)c1ccc(S(=O)(=O)c2cccc(S(=O)(=O)N3CCOCC3)c2)cc1,12.7%
6,Cc1cc(N2CCC(C(=O)NCC3CC3)CC2)nc(-c2ccccc2)n1,-53%
7,COc1ccc(CNC(=O)CC23CC4CC(CC(C4)C2)C3)cc1,16.8%
8,CC(=O)c1cn(CCCOc2ccccc2)c2ccccc12,6.39%
9,CCNc1sc(C(=O)c2cccs2)c(N)c1C#N,5.91%
10,CCC(C)(C(=O)NC1CCCC1)N(Cc1cccs1)C(C)=O (stereo not shown),13.9%
11,Cc1ccc2[nH]c(=O)c(CN(Cc3ccc4c(c3)OCO4)Cc3nnnn3Cc3ccco3)cc2c1,9.95%
12,CC(C)CC(=O)Nc1sc2c(c1C#N)CC(C)(C)NC2(C)C,0.254%
13,COc1ccc(/C=N/Nc2ccc(C(F)(F)F)cc2[N+](=O)[O-])cc1,8.12%
14,COc1ccc(N2CCN(CCC(N)=O)CC2)cc1,14.6%
15,CCOC(=O)Cc1ccc(NC(=O)c2ccc(C(C)(C)C)cc2)cc1,2.5%
16,CC(C)OC(=O)CN1CCN(c2ccc(Cl)cc2)CC1,6.64%
17,C=CCn1c(C)csc1=Nc1ccc(C(C)=O)cc1,18.3%
18,COc1ccc(-c2coc3cc(O)ccc3c2=O)cc1,1.37%
19,COC(=O)C1=C(c2cc3ccccc3o2)C[C@@H]2CC[C@H]1N2C(=O)N1CCCC1,7.5%
20,O=C(Cc1ccc([N+](=O)[O-])cc1)Nc1ccc(Cl)cc1,10.4%
21,Cc1cc(C(=O)NNC(=O)c2ccccc2[N+](=O)[O-])c(C)o1,7.43%
22,CCOc1cc(C)c(Cl)cc1S(=O)(=O)NCCOC,7.32%

row,Compound,"hERG current change (%, negative = inhibition) at 1uM"
1,C=CCNc1nc(N)c([N+](=O)[O-])c(NCc2ccccc2)n1,9.55%
2,O=C(Nc1ccc(Sc2ccc(Br)cc2)cc1)c1ccco1,10.9%
3,CC(NC(=O)CCN1C(=O)c2ccccc2C1=O)c1ccccc1 (stereo not shown),12%
4,Cc1cccc(C(=O)N/N=C2\CS(=O)(=O)N(C)c3ccsc32)c1,2.78%
5,Cc1cccc(N(CC(=O)NC2CCCCC2)C(=O)CCC(=O)Nc2nccs2)c1,15.4%
6,COc1ccc(OCC(O)CNC2CCCC2)cc1.Cl (stereo not shown),11.4%
7,C=C(C)c1cccc(C(C)(C)NC(=O)Nc2ccc(OC)nc2)c1,-0.414%
8,COC(=O)c1ccc(OC)c(Cn2c(=O)n(C)c(=O)c3sccc32)c1,12.5%
9,COc1ccc(N(CC(=O)Nc2ccc(C(C)C)cc2)S(=O)(=O)c2c(C)noc2C)cc1,9.97%
10,CCc1ccccc1NC(=O)c1cc(=O)c2ccccc2o1,8.38%
11,O=C(CN1CCC(O)(c2ccc3c(c2)OCO3)CC1)OC1CCCCC1,8.95%
12,CC1CCN(c2cc(N3CCN(C(=O)c4ccc(F)c(F)c4)CC3)c([N+](=O)[O-])cc2F)CC1,9.61%
13,O=C1NC(=O)c2cc(Br)cc3cccc1c23,15.1%
14,COc1ccc(-c2cc3c(=O)n(CC(=O)NCCCc4ccccc4)ncn3n2)cc1,13.2%
15,CCN(C1CCCCC1)S(=O)(=O)c1c(C)n(C)c(=O)n(C)c1=O,-1.2%
16,COc1ccc(CN2CCN(CCCc3ccccc3)CC2)c(OC)c1,-64.9%
17,Cc1ccc(S(=O)(=O)Oc2ccc(C3C4=C(CCCC4=O)N(CCC(=O)O)C4=C3C(=O)CCC4)cc2Cl)cc1,6.26%
18,CC1(C)C2CC=C(/C=N/NC(=O)c3ccc(Cl)cc3)C1C2 (stereo not shown),7.54%
19,Cc1cc(N/N=C/c2cccc(F)c2)nc(NCc2ccccc2)n1,1.45%
20,Cl.c1ccc(CCn2nnnc2CN2CCCc3ccccc32)cc1,15.3%
21,O=C(Nc1ccccc1)Nc1nnc(-c2ccccc2)o1,7.22%
22,COC(=O)C1=C(c2ccc(-c3ccccc3)c(F)c2)C[C@@H]2CC[C@H]1N2C(=O)NC(C)C,12.8%

row,Compound,"hERG current change (%, negative = inhibition) at 1uM"
1,O=C(COC(=O)/C=C/c1ccc(Br)o1)Nc1ccc2[nH]c(=O)[nH]c2c1,3.55%
2,CC1=CC(C)(C)NC(=S)N1c1ccc(C)c(C)c1,4.93%
3,COc1ccc(CCNc2c(N)n(Cc3ccccc3)c(=O)[nH]c2=O)cc1OC,10.5%
4,CC(=O)N1CCc2cc(S(=O)(=O)CCC(=O)N3CCN(c4cc(C)ccc4C)CC3)ccc21,9.91%
5,Cc1cccn2c(=O)c3cc(C(=O)NC4CCCC4)c(=N)n(C4CCCCC4)c3nc12,-81.9%
6,COc1ccc(Cl)cc1S(=O)(=O)NC(C)C(=O)NCc1cccnc1 (stereo not shown),1.3%
7,CC(Oc1ccc2c3c(c(=O)oc2c1)CCCC3)C(=O)NC1CC(C)(C)NC(C)(C)C1 (stereo not shown),10.3%
8,CC1CC(C)CN(CCC(=O)Nc2ccc3c(c2)CCC3)C1.Cl (stereo not shown),-6.28%
9,OCCC1CN(Cc2nc3c(s2)CCCC3)CCN1Cc1ccccc1 (stereo not shown),6.52%
10,COc1ccc(-c2nc(CS(=O)CC(=O)NCCCN3CC(C)CC(C)C3)c(C)o2)cc1OC (stereo not shown),26.5%
11,Cn1nccc1C(=O)N1CCCC(Nc2ccc(F)cc2)C1 (stereo not shown),13.5%
12,CC(C)(C)OC(=O)N[C@@H](Cc1ccccc1)C(=O)N[C@@H](CO)[C@H](O)[C@@H]1C[C@@H]1C(=O)NC1CC1,8.81%
13,CCOC(=O)c1sc(NC(=O)Cc2ccc(F)cc2)nc1C,-0.261%
14,CSc1nc2ccccc2c(=O)n1-c1cccnc1,11%
15,O=S(=O)(c1ccc(F)cc1)N1CCCC(c2nc(-c3ccc(F)cc3)no2)C1 (stereo not shown),7.04%
16,O=C(NCc1ccccc1)NC1(C(=O)N2CCN(c3ncccn3)CC2)CCCCC1,11.4%
17,O=C(NCCCCNC(=O)c1cccs1)c1cccs1,15.2%
18,CC(=O)c1cccc(NC(=O)Cn2nc(-c3ccc(Cl)cc3)ccc2=O)c1,-14.3%
19,COc1cccc(-c2cc(C(=O)Nc3cnn(Cc4ccc(F)cc4)c3)no2)c1,13.4%
20,Cc1ccc(C(=O)N2CCC(C(=O)c3c(C)cc(C)cc3C)CC2)cc1,9.88%
21,COCc1nnc(NC(=O)c2ccccc2Oc2ccccc2)s1,7.54%
22,Cl.c1ccc(CN2CCN(CCN3CCn4c3nc3ccccc34)CC2)cc1,-62.3%
